# Some of the results follow.
# B1: CFEM-CGl (Candida glabrata), Q6FRS0 (protein)
# chain: VLATPPACLLACVAQVSKQSSQCHTLNQVGCFCENENTAIKNCLDSICPNGNSDAAYTAFKNSCGDVGKAVASV
# Legend:
# Experiment in all cases: glycan array binding signal (z-score within array); higher = stronger binding
# Conditions in all cases: glycan notation: IUPAC condensed, linker removed
# Fuc(a1-2)Gal = biological target: Fuc(a1-2)Gal
# How it was run: (§1)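 From the Consortium for Functional Glycomics database, 3228 arrays were curated, keeping only those whose protein sequence was available. Binding is given as a within-array Z-score averaged across arrays sharing a protein sequence and across linkers. Negative Z-scores can be read as non-binding.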
# Fuc(a1-2)Gal(b1-3)GalNAc = biological target: Fuc(a1-2)Gal(b1-3)GalNAc
# How it was run: as §1
# [1] = biological target: Fuc(a1-2)Gal(b1-3)GalNAc(a1-3)[Fuc(a1-2)]Gal(b1-4)Glc
# How it was run: as §1
# [2] = biological target: Fuc(a1-2)Gal(b1-3)GalNAc(a1-3)[Fuc(a1-2)]Gal(b1-4)GlcNAc
# How it was run: as §1
# [3] = biological target: Fuc(a1-2)Gal(b1-3)GalNAc(b1-3)Gal
# How it was run: as §1
# [4] = biological target: Fuc(a1-2)Gal(b1-3)GalNAc(b1-3)Gal(a1-4)Gal(b1-4)Glc
# How it was run: as §1
# [5] = biological target: Fuc(a1-2)Gal(b1-3)GalNAc(b1-4)[Neu5Ac(a2-3)]Gal(b1-4)Glc
# How it was run: as §1
# Fuc(a1-2)Gal(b1-3)GlcNAc = biological target: Fuc(a1-2)Gal(b1-3)GlcNAc
# How it was run: as §1
# [6] = biological target: Fuc(a1-2)Gal(b1-3)GlcNAc(b1-2)Man(a1-3)[Fuc(a1-2)Gal(b1-3)GlcNAc(b1-2)Man(a1-6)]Man(b1-4)GlcNAc(b1-4)GlcNAc
# How it was run: as §1
# [7] = biological target: Fuc(a1-2)Gal(b1-3)GlcNAc(b1-2)Man(a1-3)[Fuc(a1-2)Gal(b1-3)GlcNAc(b1-2)Man(a1-6)]Man(b1-4)GlcNAc(b1-4)[Fuc(a1-6)]GlcNAc
# How it was run: as §1
# [8] = biological target: Fuc(a1-2)Gal(b1-3)GlcNAc(b1-3)Gal(b1-4)Glc
# How it was run: as §1
# [9] = biological target: Fuc(a1-2)Gal(b1-3)GlcNAc(b1-3)GalNAc
# How it was run: as §1
# [10] = biological target: Fuc(a1-2)Gal(b1-3)GlcNAc(b1-3)[Fuc(a1-2)Gal(b1-3)GlcNAc(b1-6)]GalNAc
# How it was run: as §1
# [11] = biological target: Fuc(a1-2)Gal(b1-3)GlcNAc(b1-3)[Gal(b1-4)GlcNAc(b1-6)]Gal(b1-4)Glc
# How it was run: as §1
# [12] = biological target: Fuc(a1-2)Gal(b1-3)GlcNAc(b1-3)[Neu5Ac(a2-6)Gal(b1-4)GlcNAc(b1-6)]Gal(b1-4)Glc
# How it was run: as §1
# [13] = biological target: Fuc(a1-2)Gal(b1-3)GlcNAc6S
# How it was run: as §1
# [14] = biological target: Fuc(a1-2)Gal(b1-3)[Fuc(a1-4)]GlcNAc
# How it was run: as §1
# [15] = biological target: Fuc(a1-2)Gal(b1-3)[Fuc(a1-4)]GlcNAc(b1-2)Man(a1-3)[Fuc(a1-2)Gal(b1-3)[Fuc(a1-4)]GlcNAc(b1-2)Man(a1-3)]Man(b1-4)GlcNAc(b1-4)GlcNAc
# How it was run: as §1
# [16] = biological target: Fuc(a1-2)Gal(b1-3)[Fuc(a1-4)]GlcNAc(b1-2)Man(a1-3)[Fuc(a1-2)Gal(b1-3)[Fuc(a1-4)]GlcNAc(b1-2)Man(a1-6)]Man(b1-4)GlcNAc(b1-4)[Fuc(a1-6)]GlcNAc(b1-4)[Fuc(a1-6)]GlcNAc
# How it was run: as §1
# [17] = biological target: Fuc(a1-2)Gal(b1-3)[Fuc(a1-4)]GlcNAc(b1-3)[Fuc(a1-3)[Gal(b1-4)]GlcNAc(b1-6)]Gal(b1-4)Glc
# How it was run: as §1
# [18] = biological target: Fuc(a1-2)Gal(b1-3)[Fuc(a1-4)]GlcNAc(b1-3)[Gal(b1-4)GlcNAc(b1-6)]Gal(b1-4)Glc
# How it was run: as §1
# [19] = biological target: Fuc(a1-2)Gal(b1-4)Fuc(a1-3)]GlcNAc(b1-2)Man(a1-3)[Fuc(a1-2)Gal(b1-4)[Fuc(a1-3)]GlcNAc(b1-2)Man(a1-6)]Man(b1-4)GlcNAc(b1-4)GlcNAc
# How it was run: as §1
# Fuc(a1-2)Gal(b1-4)Glc = biological target: Fuc(a1-2)Gal(b1-4)Glc
# How it was run: as §1
# Fuc(a1-2)Gal(b1-4)Glc6S = biological target: Fuc(a1-2)Gal(b1-4)Glc6S
# How it was run: as §1
# Fuc(a1-2)Gal(b1-4)GlcNAc = biological target: Fuc(a1-2)Gal(b1-4)GlcNAc
# How it was run: as §1
# [20] = biological target: Fuc(a1-2)Gal(b1-4)GlcNAc(b1-2)Man
# How it was run: as §1
# [21] = biological target: Fuc(a1-2)Gal(b1-4)GlcNAc(b1-2)Man(a1-3)[Fuc(a1-2)Gal(b1-4)GlcNAc(b1-2)Man(a1-6)]Man(b1-4)GlcNAc(b1-4)GlcNAc
# How it was run: as §1
# [22] = biological target: Fuc(a1-2)Gal(b1-4)GlcNAc(b1-2)Man(a1-3)[Fuc(a1-2)Gal(b1-4)GlcNAc(b1-2)Man(a1-6)]Man(b1-4)GlcNAc(b1-4)[Fuc(a1-6)]GlcNAc
# How it was run: as §1
# [23] = biological target: Fuc(a1-2)Gal(b1-4)GlcNAc(b1-2)[Fuc(a1-2)Gal(b1-4)GlcNAc(b1-4)]Man(a1-3)[Fuc(a1-2)Gal(b1-4)GlcNAc(b1-2)Man(a1-6)]Man(b1-4)GlcNAc(b1-4)GlcNAc
# How it was run: as §1
# [24] = biological target: Fuc(a1-2)Gal(b1-4)GlcNAc(b1-3)Gal(b1-4)GlcNAc
# How it was run: as §1
# [25] = biological target: Fuc(a1-2)Gal(b1-4)GlcNAc(b1-3)Gal(b1-4)GlcNAc(b1-2)Man(a1-3)[Fuc(a1-2)Gal(b1-4)GlcNAc(b1-3)Gal(b1-4)GlcNAc(b1-2)Man(a1-6)]Man(b1-4)GlcNAc(b1-4)GlcNAc
# How it was run: as §1
# [26] = biological target: Fuc(a1-2)Gal(b1-4)GlcNAc(b1-3)Gal(b1-4)GlcNAc(b1-3)Gal(b1-4)GlcNAc
# How it was run: as §1
# [27] = biological target: Fuc(a1-2)Gal(b1-4)GlcNAc(b1-3)GalNAc
# How it was run: as §1
# [28] = biological target: Fuc(a1-2)Gal(b1-4)GlcNAc(b1-3)[Fuc(a1-2)Gal(b1-4)GlcNAc(b1-6)]GalNAc
# How it was run: as §1
# [29] = biological target: Fuc(a1-2)Gal(b1-4)GlcNAc(b1-3)[Fuc(a1-3)[Gal(b1-4)]GlcNAc(b1-6)]Gal(b1-4)Glc
# How it was run: as §1
# [30] = biological target: Fuc(a1-2)Gal(b1-4)GlcNAc(b1-6)GalNAc
# How it was run: as §1
# [31] = biological target: Fuc(a1-2)Gal(b1-4)GlcNAc6S
# How it was run: as §1
# [32] = biological target: Fuc(a1-2)Gal(b1-4)[Fuc(a1-3)]GlcNAc
# How it was run: as §1
# [33] = biological target: Fuc(a1-2)Gal(b1-4)[Fuc(a1-3)]GlcNAc(b1-2)Man(a1-3)[Fuc(a1-2)Gal(b1-4)[Fuc(a1-3)]GlcNAc(b1-2)Man(a1-6)]Man(b1-4)GlcNAc(b1-4)[Fuc(a1-6)]GlcNAc
# How it was run: as §1
# [34] = biological target: Fuc(a1-2)Gal(b1-4)[Fuc(a1-3)]GlcNAc(b1-2)[Fuc(a1-2)Gal(b1-4)[Fuc(a1-3)]GlcNAc(b1-4)]Man(a1-3)[Fuc(a1-2)Gal(b1-4)[Fuc(a1-3)]GlcNAc(b1-2)Man(a1-6)]Man(b1-4)GlcNAc(b1-4)GlcNAc
# How it was run: as §1
# [35] = biological target: Fuc(a1-2)Gal(b1-4)[Fuc(a1-3)]GlcNAc(b1-3)Gal(b1-4)[Fuc(a1-3)]GlcNAc
# How it was run: as §1
# [36] = biological target: Fuc(a1-2)Gal(b1-4)[Fuc(a1-3)]GlcNAc(b1-3)Gal(b1-4)[Fuc(a1-3)]GlcNAc(b1-3)Gal(b1-4)[Fuc(a1-3)]GlcNAc
# How it was run: as §1
# [37] = biological target: Fuc(a1-2)Gal(b1-4)[Fuc(a1-3)]GlcNAc(b1-3)GalNAc
# How it was run: as §1
# [38] = biological target: Fuc(a1-2)Gal(b1-4)[Fuc(a1-3)]GlcNAc(b1-3)[Neu5Ac(a2-6)Gal(b1-4)GlcNAc(b1-6)]Gal(b1-4)Glc
# How it was run: as §1
# [39] = biological target: Fuc(a1-2)Gal3S(b1-4)GlcNAc
# How it was run: as §1
binder,measurement,setting,value
B1,glycan array binding signal (z-score),Fuc(a1-2)Gal,-0.215
same,glycan array binding signal (z-score),Fuc(a1-2)Gal(b1-3)GalNAc,-0.341
same,glycan array binding signal (z-score),[1],-0.334
same,glycan array binding signal (z-score),[2],-0.224
same,glycan array binding signal (z-score),[3],0.607
same,glycan array binding signal (z-score),[4],-0.136
same,glycan array binding signal (z-score),[5],0.519
same,glycan array binding signal (z-score),Fuc(a1-2)Gal(b1-3)GlcNAc,-0.431
same,glycan array binding signal (z-score),[6],-0.488
same,glycan array binding signal (z-score),[7],-0.163
same,glycan array binding signal (z-score),[8],-0.493
same,glycan array binding signal (z-score),[9],-0.548
same,glycan array binding signal (z-score),[10],0.578
same,glycan array binding signal (z-score),[11],-0.442
same,glycan array binding signal (z-score),[12],-0.042
same,glycan array binding signal (z-score),[13],-0.034
same,glycan array binding signal (z-score),[14],-0.551
same,glycan array binding signal (z-score),[15],1.1
same,glycan array binding signal (z-score),[16],-0.092
same,glycan array binding signal (z-score),[17],-0.381
same,glycan array binding signal (z-score),[18],-0.356
same,glycan array binding signal (z-score),[19],0.143
same,glycan array binding signal (z-score),Fuc(a1-2)Gal(b1-4)Glc,-0.13
same,glycan array binding signal (z-score),Fuc(a1-2)Gal(b1-4)Glc6S,-0.295
same,glycan array binding signal (z-score),Fuc(a1-2)Gal(b1-4)GlcNAc,-0.393
same,glycan array binding signal (z-score),[20],-0.231
same,glycan array binding signal (z-score),[21],-0.245
same,glycan array binding signal (z-score),[22],-0.513
same,glycan array binding signal (z-score),[23],-0.312
same,glycan array binding signal (z-score),[24],-0.233
same,glycan array binding signal (z-score),[25],-0.168
same,glycan array binding signal (z-score),[26],-0.407
same,glycan array binding signal (z-score),[27],8.8
same,glycan array binding signal (z-score),[28],-0.337
same,glycan array binding signal (z-score),[29],-0.397
same,glycan array binding signal (z-score),[30],0.206
same,glycan array binding signal (z-score),[31],-0.397
same,glycan array binding signal (z-score),[32],-0.149
same,glycan array binding signal (z-score),[33],-0.064
same,glycan array binding signal (z-score),[34],0.939
same,glycan array binding signal (z-score),[35],-0.324
same,glycan array binding signal (z-score),[36],-0.246
same,glycan array binding signal (z-score),[37],1.42
same,glycan array binding signal (z-score),[38],-0.389
same,glycan array binding signal (z-score),[39],-0.179

# — the supplement of paper PMC8728848
